PubChem BioAssay AID1645887 (National Center for Advancing Translational Sciences (NCATS), 2021)
Where “and” joins values, the source holds several entries; their conditions need not be identical. Equal values may be shown once. The campaign covered roughly 16,000 compounds. About 40 (0.2%) were called active. About 1% were inconclusive and are not listed. The call rests on the fitted dose curve; in most records, active means well fitted activation curve with a large enough effect; inconclusive means small, poorly fitted or top-dose-only effect, or another doubt; inactive means no such curve, though single readings can be large or run the other way. The list shows a part of the results. Residues, ends and D or L forms follow the SMILES beside them.

Molecular target: Rap guanine nucleotide exchange factor 4 (Homo sapiens) (UniProt Q8WZA2)
UniProt Q8WZA2, sequence (Q8WZA2 whole entry, looked up): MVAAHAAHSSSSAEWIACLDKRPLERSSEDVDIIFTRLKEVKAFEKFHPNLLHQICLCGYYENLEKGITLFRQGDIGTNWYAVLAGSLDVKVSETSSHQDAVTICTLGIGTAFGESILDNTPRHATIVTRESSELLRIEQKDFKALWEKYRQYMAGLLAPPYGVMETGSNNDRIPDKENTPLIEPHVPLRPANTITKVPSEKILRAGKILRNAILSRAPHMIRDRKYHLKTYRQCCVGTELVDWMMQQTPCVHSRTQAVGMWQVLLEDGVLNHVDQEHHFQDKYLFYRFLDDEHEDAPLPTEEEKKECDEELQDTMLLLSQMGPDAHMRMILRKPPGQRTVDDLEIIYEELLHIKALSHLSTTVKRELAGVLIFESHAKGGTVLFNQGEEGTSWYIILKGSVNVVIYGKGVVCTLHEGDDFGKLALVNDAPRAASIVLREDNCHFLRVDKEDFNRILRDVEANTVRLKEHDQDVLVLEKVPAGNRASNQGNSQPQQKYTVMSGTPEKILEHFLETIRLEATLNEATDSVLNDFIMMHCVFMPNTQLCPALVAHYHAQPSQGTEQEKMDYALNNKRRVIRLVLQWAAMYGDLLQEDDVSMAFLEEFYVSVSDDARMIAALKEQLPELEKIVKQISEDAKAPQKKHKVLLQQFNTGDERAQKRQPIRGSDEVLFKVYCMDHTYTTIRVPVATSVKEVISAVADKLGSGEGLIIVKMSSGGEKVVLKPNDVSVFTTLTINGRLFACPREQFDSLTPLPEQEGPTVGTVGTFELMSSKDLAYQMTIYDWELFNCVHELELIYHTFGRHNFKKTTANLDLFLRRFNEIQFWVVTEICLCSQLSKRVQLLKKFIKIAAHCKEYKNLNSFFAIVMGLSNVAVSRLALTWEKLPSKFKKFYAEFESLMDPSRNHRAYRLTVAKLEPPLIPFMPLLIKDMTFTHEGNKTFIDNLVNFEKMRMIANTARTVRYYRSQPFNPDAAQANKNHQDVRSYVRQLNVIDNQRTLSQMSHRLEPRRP
Assay: Validation qHTS for agonist of cAMP-regulated guanine nucleotide exchange factor 4 (EPAC2);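 further: exchange makes BODIPY-GDP fluorescence drop when released from Rap1B; series mostly up to about 150 µM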
Conditions: EPAC2 Rap1B BODIPY-GDP exchange, fluorescence; activation: hits give high values
Outline: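 Fluorescent exchange assay: 100 nM EPAC2 with 250 nM RAP1B-BODIPY-GDP and 50 uM GDP; compound added, 5 min at room temperature, then read (ex 480/em 540 nm) every 5 min for 30 min. Normalized to 6.5 mM cAMP agonist control.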
On the % scale 0 is the no-effect control and ±100 the full control effect.

activation, inactive:
Cn1cccc1C(=O)N1CCC[C@@]2(CCN(c3ccncc3)C2)C1 2.03%
O=C1c2ccccc2C(=O)C1c1ccc(F)cc1 7.02%
CC(=O)NC(CC(=O)O)C(=O)NC(CCC(=O)O)C(=O)O (stereo not drawn) (Ac-Asp-Glu-OH; configuration not given here) -8.16%
CC[N+](C)(CC)CCOC(=O)C1c2ccccc2Oc2ccccc21 -3.93%
FC(F)(F)C(Cl)Br (centres undefined) -29.1%
O=C(O)CN1C(=O)c2cccc3cccc(c23)C1=O -24.4% and -16.5%
CCCCN(CCCC)CCCOC(=O)c1ccc(N)cc1 -12.7% and -3.98%
c1ccc(Nc2nc(-c3cccnc3)nc3ccccc23)cc1 -9.83%
Cc1ccc(C(=O)c2ccc(CC(=O)O)n2C)cc1 8.61% and 2.31%
C/C(=N\O)c1ccc(OCC(=O)N2CCCCC2)cc1 13.4%
CN(C)c1ccc(-c2nccc(Nc3ccc(F)cc3)n2)cc1 -13.4%
COCC(=O)N1CCC2(CC1)CN(Cc1ccccc1OC)C2 -10.1%
CN(C)Cc1ccccc1-c1cncnc1NC1CC1 -17%
C=C1C[C@@]23C[C@@]1(O)CC[C@@H]2[C@]12C=C[C@@H](O)[C@](C)(C(=O)O1)[C@@H]2[C@@H]3C(=O)O 8.89%
CN(C)c1ncc2nc(-c3ccccc3)c(=O)n(C)c2n1 -2.92%
CC(C)c1cc(/C=C(\C#N)C(=O)NCCCc2ccccc2)cc(C(C)C)c1O 13.7%
O=C(O)[C@H]1[C@H]2C[C@H]3c4[nH]c5ccccc5c4CCN3C[C@@H]2CC[C@@H]1O 0.149%
CC(O)CN(CCN(CC(C)O)CC(C)O)CC(C)O (centres undefined) -5.22%
O=C(O)CCCCCCCC(=O)O -8.94% and 11.1% and 6.57%
O=C(CCCN1CCN2CCCC2C1)c1ccc(F)cc1 (centres undefined) -0.367%
CCCCCCCCCCCCCCCCCCNC(=O)OC1CCN(C(=O)OC[C@H](COC(=O)N(Cc2cccc[n+]2CC)C(=O)c2ccccc2OC)OC)CC1 11%
CC12CCC3C(CC3(C)C)C(C)(CCC1=O)O2 (centres undefined) -7.07%
CC1CN(Cc2cccn2-c2cccnc2)Cc2cc(Cl)ccc2O1 (centres undefined) -1.89%
Cc1noc(C)c1C(=O)N1CCC2(CC1)CCN(c1ncccn1)CC2 -20.9%
COCC(=O)N1CCC2(CCCN(C(c3ccccc3)c3ccccc3)C2)CC1 -5.39%
Cn1c(=O)c(-c2cccc(F)c2)nc2cncnc21 -0.659%
CCCCCCCCCC(=O)O[C@H](CC(=O)O)C[N+](C)(C)C -7.29%
COC(=O)C[C@H]1c2cc(C(F)(F)F)ccc2S(=O)(=O)N1c1ccc(N(C)C)cc1 -28.3%
NC1(C(=O)O)CCCCC1 -8.07%
CC(=O)C1(C)CC2(CC(C)(C)OC2=O)C(=O)O1 (centres undefined) -5.92%
COc1ccccc1CNc1ncncc1-c1ccc(N(C)C)cc1 -12%
CCNC(=O)NCCCOc1cccc(CN2CCCCC2)c1 -1.5%
COc1ccc(-c2ccc(N)[n+](CCCC(=O)O)n2)cc1 -8.16%
CN1CCN(c2ncc3nc(-c4cccc(C#N)c4)c(=O)n(CCC#N)c3n2)CC1 -10.7%
CCCCCCCCCCCCCCCC(=O)OC(C)C -30.5%
COc1ccc(CNc2ccnc(-c3c(C)noc3C)n2)c(OC)c1 0.299%
O=C1C[C@@H]2c3c(cccc3CN1Cc1ccc(F)cc1)C[C@@H](O)[C@H]2O -11.9%
CO[C@H]1C=CO[C@@]2(C)Oc3c(C)c(O)c4c(O)c(c5c(c4c3C2=O)=NC2(CCN(CC(C)C)CC2)N=5)NC(=O)/C(C)=C\C=C/[C@H](C)[C@H](O)[C@@H](C)[C@@H](O)[C@@H](C)[C@H](OC(C)=O)[C@@H]1C 5.91%
O=C(c1cnccn1)N1CCC2(CC1)CN(c1ccccn1)C2 -13.1%
COc1cccc(C(=O)O[C@H]2[C@H](C)NS(=O)(=O)[C@H]3C[C@@H]4C=C[C@]23O4)c1 -7.64%
NNCCc1ccccc1 7.25% and 11.6% and 1.52%
O=C(Oc1ccccc1)N1CCC[C@@]2(CCN(c3ncccn3)C2)C1 -23.8%
CC(C)(C)c1ccc(S(=O)(=O)N[C@H]2CC[C@@H](n3cc(C(=O)N4CCCC4)nn3)CC2)cc1 -21.1%
O=c1c(-c2ccc(Cl)cc2)nc2cncnc2n1Cc1ccccc1 -2.96%
Cc1ccc(C)c(CN2CCc3nnc(CNC(=O)c4cc(C)oc4C)n3CC2)c1 -15.2%
COc1cc(/C=C/C(=O)O[C@H]2CC[C@]34C[C@]35CC[C@]3(C)[C@@H]([C@H](C)CCC=C(C)C)CC[C@@]3(C)[C@@H]5CC[C@H]4C2(C)C)ccc1O -16.4% and -25.7%
COc1cccc(C2(CC(=O)N3CCN(c4nonc4C)CC3)CC(=O)N(C3CCCC3)C2=O)c1 (centres undefined) -6.59%
CC(=O)NCCNc1ncnc2ccc(-c3ccc(C(=O)N(C)C)cc3)cc12 -10.2%
CC(NC(=O)c1cc(F)ccc1F)c1nnc2n1CCN(Cc1cccs1)CC2 (centres undefined) -10.4%
COc1ccccc1-c1oc2ccccc2c(=O)c1OC 5.99%
CCCc1cc(C(N)=S)ccn1 -2.95%
FC(F)(F)c1ccccc1-c1ccc2ncnc(NC3CC3)c2c1 -23.9%
COCCn1c(=O)c(-c2ccc(OC)cc2)nc2cnc(Oc3ccc(OC)cc3)nc21 -8.43%
Cc1ccc2c(c1)CN(CCNC(=O)c1n[nH]c3c1CCCC3)CC(C)O2 (centres undefined) -0.602%
